Laboratory results published in the supplement of paper PMC4723716.
Several values for one entry are separate records, joined by “and”; a condition that tells them apart may be missing. Identical values can stand only once. ± gives the uncertainty stated by the source. The full ranking holds about 9,900 compounds; the median of “viability index relative to DMSO control” is about 1, and the lowest 2% start at about 0.85. This is one part of the list.

tested on: Plasmodium falciparum NF54 stage V gametocytes; test: viability index relative to DMSO control (fraction); higher = less gametocyte killing; settings: 2.5 µM, library set: Broad Institute DOS, incubation time: 72 h
How it was run: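 P. falciparum NF54 stage V gametocytes in serum-free screening medium (0.75% gametocytemia, 1.25% hematocrit, 10 µl) were incubated with compound at 2.5 µM in 1,536-well plates for 72 hr at 37°C under low oxygen. Then 3 µl of 2.5 µM MitoTracker Red CMXRos plus 0.13% saponin was added for one to two hours. One field per well was imaged, 20–70 µm2 red particles were counted, and the viability index was the count divided by the plate mean of DMSO wells.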

SMILES	viability index
C[C@H]1CN([C@@H](C)CO)C(=O)c2cc(NS(=O)(=O)c3cn(C)cn3)ccc2O[C@H]1CN(C)S(=O)(=O)c1ccc(F)cc1	0.958 ± 0.1
CCCC(=O)N1C[C@]2(CCN(CC2)S(C)(=O)=O)c2c([nH]c3cc(OC)ccc23)[C@H]1CO	1.06 ± 0.013
Cc1noc(C)c1NC(=O)N(C)C[C@H]1Oc2ccc(NC(=O)CCCN(C)C)cc2C(=O)N([C@@H](C)CO)C[C@H]1C	1.05 ± 0.084
C[C@H](CO)N1C[C@H](C)[C@H](CN(C)C(=O)Nc2ccc(C(F)(F)F)cc2)Oc2c(NC(=O)c3ccc(-c4nccs4)cc3)cccc2C1=O	1.04 ± 0.021
C[C@@H]1CCCCO[C@@H](CN(C)CC2CCCCC2)[C@H](C)CN([C@H](C)CO)C(=O)c2cc(NS(C)(=O)=O)ccc2O1	1.076 ± 0.0096
CO[C@@H]1CN(C)C(=O)c2ccc(NS(=O)(=O)c3c(C)noc3C)cc2OC[C@@H](C)NC[C@@H]1C	1.06 and 1.13
Cn1cnc(S(=O)(=O)N2C[C@H](O)COC[C@H]3O[C@@H](CC(=O)NCc4cccc(F)c4)CC[C@@H]32)c1	1.05 ± 0.068
Cc1noc(C)c1NC(=O)Nc1ccc2c(c1)C(=O)N(C)[C@@H]1CC[C@H](CC(=O)N[C@@H]3CCN(Cc4ccccc4)C3)O[C@H]1CO2	1.16 ± 0.077
CCCNC(=O)N1C[C@]2(CCN(CC2)C(=O)c2cccc(F)c2)c2c([nH]c3cc(OC)ccc23)[C@@H]1CO	0.944 ± 0.015
COc1ccc(-c2ccc3c(c2)[C@@H]2[C@@H](CCN2C(=O)c2ccncc2)[C@H](CO)N3C)cc1	1.1 ± 0.043
N#C[C@@H]1[C@@H](c2ccccc2)[C@H](CO)N1C(=O)c1cc(Cl)cc(Cl)c1	1.06 ± 0.019
O=C(Nc1ccc(C(F)(F)F)cc1)N[C@H]1C=C[C@@H](CC(=O)N2CCCCC2)O[C@@H]1CO	1.13 ± 0.07
CN1[C@@H]2Cn3c(ccc(/C=C/c4ccccc4)c3=O)[C@H]1[C@@H](C(=O)NC1Cc3ccccc3C1)[C@@H]2CO	1.075 ± 0.0017
CO[C@@H]1CN(C)C(=O)c2cc(NC(=O)C3CCCCC3)ccc2OC[C@@H](C)N(C(=O)c2ccccc2)C[C@@H]1C	0.981 ± 0.014
CCCNC(=O)N1[C@H](CO)[C@H](c2ccc(-c3ccccc3F)cc2)[C@@H]1C#N	1.05 ± 0.032
C[C@H](CO)N1C[C@H](C)[C@@H](CN(C)C(=O)NC2CCCCC2)OCc2cn(nn2)CCCC1=O	0.998 ± 0.012
CCNC(=O)c1cc2c(c(-c3cccc(-c4ccccc4F)c3)n1)[C@@H](CCO)N(C(=O)CC1CC1)C2	1.03 ± 0.1
N#C[C@H]1N[C@@H](CO)[C@H]1c1ccc(C#CC2CCCCC2)cc1	1.102 ± 0.0024
NCC[C@@H]1CC[C@@H](NS(=O)(=O)c2ccc(Cl)cc2)[C@H](CO)O1	1.08 ± 0.1
C[C@@H]1CN([C@H](C)CO)C(=O)c2cc(NC(=O)Nc3ccccc3)ccc2O[C@@H]1CN(C)Cc1ccccc1	1.03 ± 0.011
Cc1ccccc1NC(=O)C[C@H]1CC[C@H]2[C@@H](COc3ccc(NC(=O)NC(C)C)cc3C(=O)N2C)O1	1 ± 0.12
C[C@@H]1CCCCO[C@@H](CN(C)S(=O)(=O)c2cn(C)cn2)[C@H](C)CN([C@H](C)CO)C(=O)c2cc(N(C)C)ccc2O1	0.884 ± 0.12
O=C(c1cccc(F)c1)N1CC(=O)N2[C@H](CO)[C@H](c3ccc(C4=CCCCC4)cc3)[C@@H]2C1	0.995 ± 0.092
C[C@@H]1CCCCO[C@@H](CN(C)C(=O)Nc2ccc(C(F)(F)F)cc2)[C@H](C)CN([C@@H](C)CO)C(=O)c2cc(NS(=O)(=O)c3cn(C)cn3)ccc2O1	1.07 ± 0.14

SMILES	viability index
COc1ccc(NC(=O)N(C)C[C@H]2OCCCC[C@@H](C)Oc3ccc(NC(=O)c4ccncc4)cc3C(=O)N([C@@H](C)CO)C[C@@H]2C)cc1	1.103 ± 0.0097
CO[C@@H]1CN(C)C(=O)c2ccc(NS(C)(=O)=O)cc2OC[C@H](C)N(CC2CC2)C[C@H]1C	1.08 ± 0.046
CN1C(=O)c2cc(NC(=O)Cc3cccs3)ccc2OC[C@H]2O[C@@H](CC(=O)NCC3CCCCC3)CC[C@@H]21	1.13 ± 0.037
CO[C@@H]1CN(C)C(=O)c2ccc(NC(=O)Nc3ccccc3)cc2OC[C@@H](C)N(C(=O)CC2CC2)C[C@H]1C	1.01 ± 0.084
COCCNC[C@H]1[C@@H](c2ccccc2)[C@@H](CO)N1c1nc(C)c(C)s1	0.994 ± 0.079
CO[C@H]1CC[C@@H]2CCOc3c(C#N)cccc3C(=O)N(C)C[C@@H](c3ccccc3)CC(=O)N(C)C[C@H]1O2	0.997 ± 0.09
CNC[C@@H]1Oc2ccc(NC(=O)NC3CCCCC3)cc2CC(=O)N([C@H](C)CO)C[C@H]1C	0.978 ± 0.032
CN1C[C@@H](O)COC[C@@H]2O[C@@H](CC(=O)NC3CCCC3)CC[C@H]21	1.1 ± 0.02
COc1cccc(NC(=O)N[C@H]2C=C[C@H](CC(=O)NCc3ccncn3)O[C@H]2CO)c1	1.128 ± 0.0057
COc1ccc2c3c([nH]c2c1)[C@H](CO)NC[C@]31CCN(CC1)C(=O)Nc1ccccc1F	1.001 ± 0.0047
CCC(=O)N1CC[C@@H]2[C@@H](CO)N(C)c3ccc(-c4ccc(C#N)cc4)cc3[C@@H]21	1.15 ± 0.039
O=C(C[C@@H]1CC[C@H]2[C@@H](COC[C@H](O)CN2Cc2ccc(Oc3ccccc3)cc2)O1)N1CCN(c2ccccc2)CC1	1.06 ± 0.024
O=C([C@@H]1[C@@H](CO)[C@@H]2Cn3c(cccc3=O)[C@H]1N2Cc1cocn1)N1CCCCC1	0.937 ± 0.041
N#Cc1ccc(-c2ccc3c(c2)[C@@H]2[C@@H](CCN2C(=O)C2CCCCC2)[C@@H](CO)N3)cc1	1.1 ± 0.024
CO[C@@H](CN(C)Cc1ccc2c(c1)OCO2)[C@@H](C)CN(C(=O)Nc1ccc(F)cc1)[C@@H](C)CO	1.03 ± 0.019
COc1ccc2c3c([C@@H](CO)N(C[C@]33CN(C3)C(=O)c3cccc(F)c3)C(=O)c3cccc(F)c3)n(C)c2c1	0.848 ± 0.02
CCN(C[C@H]1[C@H](c2ccccc2)[C@@H](CO)N1S(C)(=O)=O)C(=O)C1CCCC1	1.07 ± 0.035
CN1C(=O)c2cc(NC(=O)NCc3ccccc3)ccc2OC[C@@H]2O[C@H](CC(=O)NCC3CCCCC3)CC[C@@H]21	1.02 ± 0.039
Cc1ccc(S(=O)(=O)N(C)C[C@@H]2OCCCC[C@@H](C)Oc3ccc(NC(=O)c4ccncc4)cc3C(=O)N([C@H](C)CO)C[C@@H]2C)cc1	1.12 ± 0.033
CN1C(=O)c2cc(NC(=O)Cc3cccs3)ccc2OC[C@@H]2O[C@@H](CC(=O)N[C@@H]3CCN(Cc4ccccc4)C3)CC[C@H]21	1.12 ± 0.15
COc1ccc2c3c([C@H](CO)N(CC4CC4)C[C@]33CN(Cc4ccc(F)cc4)C3)n(C)c2c1	0.978 ± 0.043
C[C@@H]1CN([C@@H](C)CO)C(=O)c2ccccc2-c2ccccc2CO[C@H]1CN(C)S(=O)(=O)c1cccc(C#N)c1	1.01 ± 0.11
CNC[C@H]1OCCCC[C@@H](C)Oc2ccc(NC(=O)Nc3ccc(OC)cc3)cc2C(=O)N([C@H](C)CO)C[C@H]1C	1.05 ± 0.012
CC(C)[C@H]1COCc2cnnn2CCC[C@@H](C)C(=O)N1	1.092 ± 0.0059

SMILES	viability index
O=C(NC1CCCC1)N1CC(=O)N2[C@H](CO)[C@H](c3ccc(C4=CCCCC4)cc3)[C@@H]2C1	0.986 ± 0.045
O=C(NCC[C@H]1CC[C@H](NC(=O)C2CCOCC2)[C@@H](CO)O1)c1cc(Cl)cc(Cl)c1	0.973 ± 0.12
C/C=C/c1ccc([C@H]2[C@@H](CO)N[C@@H]2CN(Cc2cccnc2)C(=O)C2CC2)cc1	1 ± 0.037
Cc1ccc(OC(=O)N(C)C[C@H]2OCc3ccccc3-c3ccccc3C(=O)N([C@@H](C)CO)C[C@H]2C)cc1	0.92 ± 0.1
CC(C)(C)S(=O)N1Cc2cc(C(=O)NCc3ccc4c(c3)OCO4)nc(-c3cccc(-c4cc5ccccc5o4)c3)c2[C@H]1CCO (stereo not given in full)	0.656 ± 0.04
Cn1cnc(S(=O)(=O)N2[C@@H]3CNC[C@H]2[C@H]3c2ccc(/C=C/c3ccccc3)cc2)c1	1.05 ± 0.014
O=C(c1ccc2c(c1)OCO2)N1C[C@H]2[C@@H](c3ccccc31)[C@@H](CO)N2Cc1cccnc1	1.06 ± 0.03
Cc1ccccc1S(=O)(=O)N1C[C@@H]2N[C@H](C1)[C@@H]2c1ccc(-c2cccc(C#N)c2)cc1	0.903 ± 0.018
CCS(=O)(=O)N1C[C@@]2(C1)CN([C@H](CO)c1c2c2ccc(OC)cc2n1C)C(=O)c1ccc(F)cc1	1.02 ± 0.03
COc1cccc(NC(=O)N2CC(=O)N3[C@H](CO)[C@H](c4ccc(C5=CCCCC5)cc4)[C@@H]3C2)c1	1.06 ± 0.052
COCC(=O)N1[C@@H]2c3ccc(/C=C/c4ccccc4)c(=O)n3C[C@H]1[C@H](CO)[C@H]2C(=O)N1CCOCC1	1.1 ± 0.028
C[C@@H]1CCc2cnnn2COC[C@@H](c2ccccc2)NC1=O	1.058 ± 0.0089
CCCNC(=O)N1C[C@@]2(C1)CN([C@H](CO)c1[nH]c3cc(OC)ccc3c21)C(=O)Nc1ccc(F)cc1	0.951 ± 0.052
CCc1csc(N2[C@H](CO)[C@H](c3ccccc3)[C@@H]2CNC)n1	0.372 ± 0.18
CC(=O)N1[C@H](CO)[C@H](c2ccccc2)[C@@H]1CN(C(=O)c1ccccc1F)C(C)C	1.06 ± 0.06
N#Cc1ccc(-c2ccc([C@@H]3[C@@H]4CN(S(=O)(=O)Cc5ccccc5)C[C@H]3N4)cc2)cc1	0.976 ± 0.037
CCCC#Cc1cnc2c(c1)C(=O)N([C@H](C)CO)C[C@H](C)[C@@H](CN(C)C(=O)Nc1cc(F)ccc1F)O2	0.995 ± 0.089
C[C@@H]1CN([C@H](C)CO)C(=O)Cc2cc(NC(=O)Cn3cnnn3)ccc2O[C@H]1CN(C)S(=O)(=O)c1ccc(Cl)cc1	1 ± 0.17
COc1ccc(-c2ccc([C@H]3[C@@H]4CN(S(=O)(=O)c5ccccc5C)C[C@H]3N4)cc2)cc1	0.916 ± 0.068
O=C1C[C@@H](c2ccccc2)C(=O)N[C@H](c2ccc(F)cc2)C/C=C\CCN1	1.083 ± 0.01
C/C=C/c1ccccc1[C@H]1[C@@H](CO)N(C(=O)CN2CCOCC2)[C@H]1C#N	1.07 ± 0.12
C[C@@H]1CN([C@H](C)CO)C(=O)CCCn2nncc2CO[C@H]1CN(C)S(=O)(=O)c1ccc2c(c1)OCCCO2	1.08 ± 0.061
